The other results are listed elsewhere or left out.

The target in this experiment is T1, OsWOX13 (Oryza sativa, UniProt Q5QMM3 1-267).
T1 sequence: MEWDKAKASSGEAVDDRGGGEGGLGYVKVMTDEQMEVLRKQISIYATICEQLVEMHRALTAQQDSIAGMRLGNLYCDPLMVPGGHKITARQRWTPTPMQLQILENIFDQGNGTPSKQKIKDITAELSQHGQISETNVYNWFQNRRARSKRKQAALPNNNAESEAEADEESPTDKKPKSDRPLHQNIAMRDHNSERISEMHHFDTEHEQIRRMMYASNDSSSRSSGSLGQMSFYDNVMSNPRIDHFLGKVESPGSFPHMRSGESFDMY
The experiment is described as follows: protein-binding microarray (RPBM); PBS, 2% BSA, 51.3 ng/ul salmon testes DNA, 50 uM zinc acetate, 200 nM TF, 25 C, 1 h; high values mean tight binding. The conditions noted are these: protein: recombinant; tags: N-terminal polyhistidine and DsRed monomer fusion (pET32a); label: CyDye5-dUTP incorporated in the synthesized complementary strand; 3' TTTTT single-stranded linker to array surface; dsDNA, one strand shown. An outline of the steps:
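Ni–NTA purification followed expression in E. coli BL21-CodonPlus of transcription factors fused N-terminally to a polyhistidine tag and DsRed. At 200 nM in PBS with 2% BSA, salmon testes DNA and 50 µM zinc acetate, the protein was incubated for 1 h at 25 °C with a custom Agilent array that had been primer-extended with Cy5-dUTP and blocked with 2% BSA. After washing, the array was read on an Axon 4000B scanner. The binding signal is per-feature fluorescence intensity in arbitrary units.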
Regarding “ATAAATTACTTTTCGTTTGCAAATATGCTGTTTGAATAAGCGGAGTCACCTAGTGCAG”, the binding signal was 13300 fluorescence intensity (a.u.).
In the case of “TATCCCAATTGATTTGTAAAGGTGTTCATTTACAACACACCGGAGTCACCTAGTGCAG” it was 24600 fluorescence intensity (a.u.).
Then “CGATCCAATTACGTCTCTCTCATTTCCAAATGAGGCACGCCGGAGTCACCTAGTGCAG”, with 8010 fluorescence intensity (a.u.); and “AATAAATTGATTGTAACCCTCTTACTTATCTGAATAGAGACGGAGTCACCTAGTGCAG”, with 22200 fluorescence intensity (a.u.).
In the case of “GGGCCTTAATTACGACGTTTACCCTTGGCCATCGAAGACACGGAGTCACCTAGTGCAG” it was 6410 fluorescence intensity (a.u.); in that of “CACAGTAATTTTCCTAAAAGAATGATAGGTGTCACGCACTCGGAGTCACCTAGTGCAG”, 8360 fluorescence intensity (a.u.); in that of “CAGCTTGTTAATTTGTTATTGCTGCCGAACAGAAACCTATCGGAGTCACCTAGTGCAG”, 4730 fluorescence intensity (a.u.).
On to “TAGAGATTAAAACTCAATTAATTATACGTTAATGGCTTTCCGGAGTCACCTAGTGCAG”, for which the binding signal is 12300 fluorescence intensity (a.u.).
Then “AATTAATTAAATTAATAAGGGAAGCACGTCGGCGTAATCCCGGAGTCACCTAGTGCAG”, with 40900 fluorescence intensity (a.u.); and “CCTAGATTGCGCCGCACCACGCCACCACGTACGCACGCGTCGGAGTCACCTAGTGCAG”, with 9000 fluorescence intensity (a.u.).
Then “AAAATTATTTAATCGAAAGGAGCCCGCTAGTTGTTTCACACGGAGTCACCTAGTGCAG”, with 3320 fluorescence intensity (a.u.).
“TTAATGTGTATGTCATGTAATTGAACATAAACACTACTGTCGGAGTCACCTAGTGCAG”: the binding signal is 5900 fluorescence intensity (a.u.).
With “CATGATGATAGAGGATCTCGTTAAAATCTCCCACTACCAACGGAGTCACCTAGTGCAG”, the binding signal is 7480 fluorescence intensity (a.u.).
Then “GTGATTTGATCTCGCTGCTGATATTGCTCCCTCATCCCAACGGAGTCACCTAGTGCAG”, with 10300 fluorescence intensity (a.u.); and “TACCGATAATTTGTTATAGATCCCTAGACGTACATTCCTCCGGAGTCACCTAGTGCAG”, with 19900 fluorescence intensity (a.u.).
In the case of “TAATAATTCTAATAATTTATCAACATGTGTATATCAAATTCGGAGTCACCTAGTGCAG” it was 3880 fluorescence intensity (a.u.).
Then “TAAATAATTGTACAGAATCGTTAGGATACATTATATCTGTCGGAGTCACCTAGTGCAG”, with 6300 fluorescence intensity (a.u.); and “GTTTACACGAGGGAATTGATGATGAGATTAAGATGAGAATCGGAGTCACCTAGTGCAG”, with 7140 fluorescence intensity (a.u.); and “ATAATTTGATTATCCGAATATTCCATTTCCATCCCAATTTCGGAGTCACCTAGTGCAG”, with 29800 fluorescence intensity (a.u.).
As to “TTGCTATTTGTTGGTTTGATTTATTGCTACTGCAACAGATCGGAGTCACCTAGTGCAG”, the binding signal is 3880 fluorescence intensity (a.u.).
In the case of “CGGTTTAGTGATAGGAATCAAATTAGAGTCAAAGTGAACTCGGAGTCACCTAGTGCAG” it was 11300 fluorescence intensity (a.u.); in that of “ATCGGAAATGGGCCAATCATATTTCCATGCTTTACGTGGACGGAGTCACCTAGTGCAG”, 8160 fluorescence intensity (a.u.).
Then “TAATAATTAATTAGTTAGTGGAACTAATCGGCAGTTGGCCCGGAGTCACCTAGTGCAG”, with 31400 fluorescence intensity (a.u.).
“GTTGGTCTAGCTTGATTAGCTGGCAGCAAATTCAGAGTTGCGGAGTCACCTAGTGCAG”: the binding signal was 6290 fluorescence intensity (a.u.).
In the case of “GTCATCAATCCGCGCCTCCTCCCGTGATCTCAATCCCAACCGGAGTCACCTAGTGCAG” it was 4120 fluorescence intensity (a.u.); in that of “TTAAAACTGAAATTATCGTATGTGCCTTGTCGCCGTGATTCGGAGTCACCTAGTGCAG”, 7510 fluorescence intensity (a.u.); in that of “AATAATATAATAGATTATTCTGTCCTCTCAGTGGTCCAAACGGAGTCACCTAGTGCAG”, 22900 fluorescence intensity (a.u.).
In the case of “ATTACAGATGTAATTTTAGTCTATTTATTTACAATGTAAGCGGAGTCACCTAGTGCAG” it was 16400 fluorescence intensity (a.u.).
In the case of “GCGGTTAATTATTGAACATCATGCGTAAGTCATGCAACTTCGGAGTCACCTAGTGCAG” it was 20600 fluorescence intensity (a.u.).
With “CCAGTCACGTTCAATCTTTTGTCCATTGGACAAAAGCACGCGGAGTCACCTAGTGCAG”, the binding signal was 3370 fluorescence intensity (a.u.).
Turning to “CACCAAATCCGGTAATTGACCAGCTCGAACAGTCCTGTGCCGGAGTCACCTAGTGCAG”, the binding signal is 23200 fluorescence intensity (a.u.).
Regarding “TCTGACAAACTGAATGTGAAGATGCAAAGCTTTTACAGGTCGGAGTCACCTAGTGCAG”, the binding signal is 7420 fluorescence intensity (a.u.).
In the case of “GCTAAACTGGCACCTATAATGCTTTTCCCTCCTCCGTAGACGGAGTCACCTAGTGCAG” it was 11000 fluorescence intensity (a.u.); in that of “GTTGATTCAAATTAGACCGTTTGGAAGTAGCCCTGTTCGACGGAGTCACCTAGTGCAG”, 22500 fluorescence intensity (a.u.).
Then “CATAAATTGTTGTTGTTTGTTACTAGAAGTTGTTTGGAAGCGGAGTCACCTAGTGCAG”, with 16800 fluorescence intensity (a.u.).
In the case of “CACCTAATGAAATTAGCTGTAGCACTTTGTTGGATGGTTTCGGAGTCACCTAGTGCAG” it was 7290 fluorescence intensity (a.u.); in that of “TTTAACTCAAGTATATTAATTAATCCATAGAAATCCTCTCCGGAGTCACCTAGTGCAG”, 6780 fluorescence intensity (a.u.).
“TTTAAATAATCAAATAAATCAAAACAAAATAGATGATAACCGGAGTCACCTAGTGCAG”: the binding signal was 8520 fluorescence intensity (a.u.).
In the case of “ATATTAATGGGCAAGTATTTTAATTGTTTGCATTTTATACCGGAGTCACCTAGTGCAG” it was 4240 fluorescence intensity (a.u.); in that of “GATCAATTTAAAATGAAAACACTAGTTTACCGTCTTCTTTCGGAGTCACCTAGTGCAG”, 6270 fluorescence intensity (a.u.); in that of “CTTCTAATGGTCCATGATTTGGCTAAAGCATCAATTCTACCGGAGTCACCTAGTGCAG”, 3710 fluorescence intensity (a.u.).
With “TTGCTTAATTAATTATTAATGTAAGAAGGGTCTAACATTTCGGAGTCACCTAGTGCAG”, the binding signal is 34300 fluorescence intensity (a.u.).

(Values after article PMC7819943, “Rice protein-binding microarrays: a tool to detect cis-acting elements near promoter regions in rice”.)
